# In the supplement of paper PMC8728848:
# This is one part of the list.
# B1: Spy0252 (Streptococcus pyogenes), Q9A1I9_STRP1 (protein)
# chain: MNMKKLASLAMLGASVLGLAACGGKSQKEAGASKSDTAKTEITWWAFPVFTQEKAEDGVGTYEKKLIAAFEKANPEIKVKLETIDFTSGPEKITTAIEAGTAPDVLFDAPGRIIQYGKNGKLADLNDLFTEEFTKDVNNDKLIQASKAGDTAYMYPISSAPFYMALNKKMLKDAGVLDLVKEGWTTDDFEKVLKALKDKGYNPGSFFANGQGGDQGPRAFFANLYSSHITDDKVTKYTTDDANSIKAMTKISNWIKDGLMMNGSQYDGSADIQNFANGQTSFTILWAPAQPGIQAKLLEASKVDYLEIPFPSDDGKPELEYLVNGFAVFNNKDEQKVAASKTFIQFIADDKEWGPKNVVRTGAFPVRTSYGDLYKDKRMEKIAEWTKFYSPYYNTIDGFAEMRTLWFPMVQAVSNGDEKPEDALKAFTEKANKTIKKTQ
# Experiments:
# Assay in all cases: glycan array binding signal (z-score within array); higher = stronger binding
# Details in all cases: glycan notation: IUPAC condensed, linker removed
# [1] = target: Gal(b1-4)GlcNAc(b1-2)[Gal(b1-4)GlcNAc(b1-4)]Man(a1-3)[Gal(b1-4)GlcNAc(b1-2)Man(a1-6)]Man(b1-4)GlcNAc(b1-4)GlcNAc
# In short: (§1)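 Columns mapping to the same glycan were averaged after glycan names were converted to IUPAC-condensed notation. The data come from 3228 arrays in the Consortium for Functional Glycomics database, limited to those with an available protein sequence. Binding is reported as a within-array Z-score averaged across arrays of one protein sequence and across linkers.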
# [2] = target: Gal(b1-4)GlcNAc(b1-3)Gal(b1-3)GlcNAc
# In short: as §1
# [3] = target: Gal(b1-4)GlcNAc(b1-3)Gal(b1-4)Glc
# In short: as §1
# [4] = target: Gal(b1-4)GlcNAc(b1-3)Gal(b1-4)GlcNAc
# In short: as §1
# [5] = target: Gal(b1-4)GlcNAc(b1-3)Gal(b1-4)GlcNAc(b1-3)Gal(b1-4)GlcNAc
# In short: as §1
# [6] = target: Gal(b1-4)GlcNAc(b1-3)Gal(b1-4)[Fuc(a1-3)]GlcNAc(b1-3)Gal(b1-4)[Fuc(a1-3)]GlcNAc
# In short: as §1
# [7] = target: Gal(b1-4)GlcNAc(b1-3)GalNAc
# In short: as §1
# [8] = target: Gal(b1-4)GlcNAc(b1-3)[Gal(b1-4)GlcNAc(b1-6)]Gal(b1-4)GlcNAc
# In short: as §1
# [9] = target: Gal(b1-4)GlcNAc(b1-3)[GlcNAc(b1-6)]Gal(b1-4)GlcNAc
# In short: as §1
# [10] = target: Gal(b1-4)GlcNAc(b1-6)Gal(b1-4)GlcNAc
# In short: as §1
# [11] = target: Gal(b1-4)GlcNAc(b1-6)Gal(b1-4)GlcNAc(b1-6)GalNAc
# In short: as §1
# [12] = target: Gal(b1-4)GlcNAc(b1-6)GalNAc
# In short: as §1
# [13] = target: Gal(b1-4)GlcNAc(b1-6)[Gal(b1-3)]GalNAc
# In short: as §1
# Gal3S(b1-3)GalNAc = target: Gal3S(b1-3)GalNAc
# In short: as §1
# Gal3S(b1-3)GlcNAc = target: Gal3S(b1-3)GlcNAc
# In short: as §1
# [14] = target: Gal3S(b1-3)[Fuc(a1-4)]GlcNAc
# In short: as §1
# Gal3S(b1-4)Glc = target: Gal3S(b1-4)Glc
# In short: as §1
# Gal3S(b1-4)Glc6S = target: Gal3S(b1-4)Glc6S
# In short: as §1
# Gal3S(b1-4)GlcNAc = target: Gal3S(b1-4)GlcNAc
# In short: as §1
# Gal3S(b1-4)GlcNAc6S = target: Gal3S(b1-4)GlcNAc6S
# In short: as §1
# [15] = target: Gal3S(b1-4)[Fuc(a1-3)]Glc
# In short: as §1
# Gal3S4S(b1-4)GlcNAc = target: Gal3S4S(b1-4)GlcNAc
# In short: as §1
# Gal3S6S(b1-4)GlcNAc = target: Gal3S6S(b1-4)GlcNAc
# In short: as §1
# Gal3S6S(b1-4)GlcNAc6S = target: Gal3S6S(b1-4)GlcNAc6S
# In short: as §1
# Gal4S(b1-4)GlcNAc = target: Gal4S(b1-4)GlcNAc
# In short: as §1
# Gal4S6S(b1-4)GlcNAc = target: Gal4S6S(b1-4)GlcNAc
# In short: as §1
# Gal6S(b1-4)Glc = target: Gal6S(b1-4)Glc
# In short: as §1
# Gal6S(b1-4)Glc6S = target: Gal6S(b1-4)Glc6S
# In short: as §1
# Gal6S(b1-4)GlcNAc = target: Gal6S(b1-4)GlcNAc
# In short: as §1
# Gal6S(b1-4)GlcNAc6S = target: Gal6S(b1-4)GlcNAc6S
# In short: as §1
# GalNAc(a1-3)Gal = target: GalNAc(a1-3)Gal
# In short: as §1
# GalNAc(a1-3)GalNAc = target: GalNAc(a1-3)GalNAc
# In short: as §1
# GalNAc(b1-3)Gal = target: GalNAc(b1-3)Gal
# In short: as §1
# [16] = target: GalNAc(b1-3)Gal(a1-4)Gal(b1-4)GlcNAc
# In short: as §1
# [17] = target: GalNAc(b1-3)Gal(a1-4)Gal(b1-4)GlcNAc(b1-3)Gal(b1-4)Glc
# In short: as §1
# GalNAc(b1-3)GalNAc = target: GalNAc(b1-3)GalNAc
# In short: as §1
# GalNAc(b1-4)GlcNAc = target: GalNAc(b1-4)GlcNAc
# In short: as §1
# [18] = target: GalNAc(b1-4)GlcNAc(b1-2)Man(a1-3)[GalNAc(b1-4)GlcNAc(b1-2)Man(a1-6)]Man(b1-4)GlcNAc(b1-4)GlcNAc
# In short: as §1
binder,measurement,setting,value
B1,glycan array binding signal (z-score),[1],-0.258
same,glycan array binding signal (z-score),[2],-0.277
same,glycan array binding signal (z-score),[3],-0.112
same,glycan array binding signal (z-score),[4],-0.253
same,glycan array binding signal (z-score),[5],-0.277
same,glycan array binding signal (z-score),[6],-0.271
same,glycan array binding signal (z-score),[7],-0.267
same,glycan array binding signal (z-score),[8],-0.27
same,glycan array binding signal (z-score),[9],-0.284
same,glycan array binding signal (z-score),[10],-0.205
same,glycan array binding signal (z-score),[11],-0.231
same,glycan array binding signal (z-score),[12],-0.225
same,glycan array binding signal (z-score),[13],-0.2
same,glycan array binding signal (z-score),Gal3S(b1-3)GalNAc,-0.252
same,glycan array binding signal (z-score),Gal3S(b1-3)GlcNAc,-0.263
same,glycan array binding signal (z-score),[14],-0.259
same,glycan array binding signal (z-score),Gal3S(b1-4)Glc,0.647
same,glycan array binding signal (z-score),Gal3S(b1-4)Glc6S,0.257
same,glycan array binding signal (z-score),Gal3S(b1-4)GlcNAc,-0.258
same,glycan array binding signal (z-score),Gal3S(b1-4)GlcNAc6S,-0.261
same,glycan array binding signal (z-score),[15],-0.254
same,glycan array binding signal (z-score),Gal3S4S(b1-4)GlcNAc,-0.245
same,glycan array binding signal (z-score),Gal3S6S(b1-4)GlcNAc,-0.149
same,glycan array binding signal (z-score),Gal3S6S(b1-4)GlcNAc6S,-0.264
same,glycan array binding signal (z-score),Gal4S(b1-4)GlcNAc,-0.249
same,glycan array binding signal (z-score),Gal4S6S(b1-4)GlcNAc,-0.152
same,glycan array binding signal (z-score),Gal6S(b1-4)Glc,-0.255
same,glycan array binding signal (z-score),Gal6S(b1-4)Glc6S,-0.262
same,glycan array binding signal (z-score),Gal6S(b1-4)GlcNAc,-0.229
same,glycan array binding signal (z-score),Gal6S(b1-4)GlcNAc6S,-0.268
same,glycan array binding signal (z-score),GalNAc(a1-3)Gal,-0.212
same,glycan array binding signal (z-score),GalNAc(a1-3)GalNAc,-0.201
same,glycan array binding signal (z-score),GalNAc(b1-3)Gal,-0.15
same,glycan array binding signal (z-score),[16],2.25
same,glycan array binding signal (z-score),[17],5.38
same,glycan array binding signal (z-score),GalNAc(b1-3)GalNAc,-0.264
same,glycan array binding signal (z-score),GalNAc(b1-4)GlcNAc,-0.255
same,glycan array binding signal (z-score),[18],-0.234
